Measurements from PubChem BioAssay (NCATS).
The other results are listed elsewhere or left out. Further columns of the screen follow, without active or inactive calls. Most of these compounds were active or inconclusive in the main read-out, so they are no random draw. Potencies come from curve fits of mixed quality, noted in brackets.

Assay: Cell-based coincidence reporter assay to measure PMP22 gene transcription in S16 Pmp22-F2sN cells - Confirmatory screen (AID 1508646)
Details: S16 Schwann cells Pmp22-F2sN, dual luciferase, 24 h
Summary of the method: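 S16 Schwann cells carrying a bioluminescent reporter in the Pmp22 3' UTR (Pmp22-F2sN) were treated with compounds for 24 h at 37C, then lysed; FLuc and then NLuc luminescence were read sequentially with a dual-luciferase kit on a CCD imager.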

[1] = measured here: FLuc reporter channel
[2] = measured here: NLuc reporter channel
Tags give direction and shape of the fitted curve.

SMILES	AC50 [1]	AC50 [2]
COc1cc(/C=C(\C#N)c2nc3ccccc3[nH]2)ccc1OCc1ccccc1F	5.44 µM [falling, full curve]	17.2 µM [falling, partial curve, poor fit]
CC(C)COc1ccccc1C1CC(=O)Nc2cc3c(cc21)OCO3 (stereo unspecified)	21.7 µM [falling, partial curve]	24.3 µM [falling, partial curve, poor fit]
COc1ccccc1NC(=O)CSc1nc2nccnc2c(=O)n1CCc1c[nH]c2ccccc12	19.3 µM [falling, partial curve]	8.62 µM [falling, full curve, poor fit]
Cc1ccc(C)c(NC(=O)CSc2c3c(nc4ccc(Cl)cc24)CCCC3)c1	21.7 µM [falling, partial curve, poor fit]	34.3 µM [falling, partial curve]
CC(=O)N1CCCc2cc(S(=O)(=O)N3CCCC(C(=O)N4CCN(c5cccc(Cl)c5)CC4)C3)ccc21 (stereo unspecified)	24.3 µM [falling, partial curve]	24.3 µM [falling, partial curve]
COc1cc2c(=O)c(C(=O)c3ccc(C)c(C)c3)cn(Cc3ccccc3F)c2cc1OC	24.3 µM [falling, partial curve]	24.3 µM [falling, partial curve]
COc1cc(C(=O)CC2(O)C(=O)N(Cc3ccccc3Cl)c3ccccc32)cc(OC)c1OC (stereo unspecified)	30.6 µM [falling, single point]	34.3 µM [falling, partial curve]
CCN(C(=O)c1cc2c(s1)-c1ccccc1OC2)c1cccc(C(F)(F)F)c1	–	43.2 µM [falling, single point]
COc1ccc(NC(=O)CSc2c3c(nc4ccc(Cl)cc24)CCCC3)cc1Cl	21.7 µM [falling, partial curve]	24.3 µM [falling, partial curve]
COc1cc(C(=O)Nc2c(C(=O)Nc3ccccc3F)oc3ccccc23)cc(OC)c1OC	7.69 µM [falling, partial curve]	8.62 µM [falling, partial curve]
Cc1ccccc1NC(=O)Cn1c(=O)n(Cc2ccc3c(c2)OCO3)c(=O)c2ccc(C(=O)NC3CCCCC3)cc21	15.3 µM [falling, partial curve]	13.7 µM [falling, partial curve]
COc1cc(OC)c(OC)cc1/C=C/c1nc2cc3ccccc3cc2c(=O)n1-c1ccc(F)cc1F	–	21.7 µM [falling, partial curve]
CCN(CC)c1ccc(NC(=O)C2COc3ccc(OC)cc3C2)c(C)c1 (stereo unspecified)	13.7 µM [falling, partial curve]	15.3 µM [falling, partial curve]
Cc1ccc(NC(=O)Cn2c(=O)n(-c3ccc(C)cc3)c(=O)c3ccc(C(=O)NCc4ccccc4Cl)cc32)cc1	4.85 µM [falling, full curve]	5.44 µM [falling, full curve]
CCC1CCCCN1CCCNC(=O)c1cc2c(Cl)nc3ccccc3c2s1 (stereo unspecified)	21.7 µM [falling, partial curve]	24.3 µM [falling, partial curve, poor fit]
CCCn1ccc2c(OCC(=O)Nc3ccccc3C(=O)OCC)cccc2c1=O	13.7 µM [falling, full curve]	15.3 µM [falling, full curve, poor fit]
O=C(NCc1ccccc1)c1cccc(Nc2nc3ccccc3n3nnnc23)c1	13.7 µM [falling, full curve]	13.7 µM [falling, full curve]
CCOC(=O)c1ccccc1NC(=O)c1nn(C)c2c1COc1ccccc1-2	17.2 µM [falling, partial curve]	19.3 µM [falling, partial curve]
CCc1nnc(SCC(=O)N(C)c2ccccc2)c2cc3sccc3n12	21.7 µM [falling, partial curve]	19.3 µM [falling, partial curve, poor fit]
Cc1nnc(N2CCCC(C(=O)Nc3ccccc3C(F)(F)F)C2)c2nn(-c3ccccc3)c(C)c12 (stereo unspecified)	43.2 µM [falling, single point]	12.2 µM [falling, partial curve, poor fit]
COc1ccc(C2Sc3ccccc3NC3=C2C(=O)c2ccccc23)c(OC)c1OC (stereo unspecified)	4.85 µM [falling, full curve, poor fit]	4.85 µM [falling, full curve]

SMILES	AC50 [1]	AC50 [2]
COc1cc2ccccc2cc1C(=O)Nc1ccc2oc(-c3cccc(Cl)c3Cl)nc2c1	12.2 µM [falling, full curve]	12.2 µM [falling, full curve]
Cc1ccc(C)c(N2CCN(C(=O)C3CCCN(S(=O)(=O)c4ccc5c(c4)oc(=O)n5C)C3)CC2)c1 (stereo unspecified)	19.3 µM [falling, partial curve, poor fit]	27.3 µM [falling, single point]
CCCSc1ncc(Cl)c(C(=O)Nc2sc3c(c2C(=O)NCC)CCCC3)n1	21.7 µM [falling, partial curve]	27.3 µM [falling, partial curve]
CC(=O)N1c2c(cc(Br)cc2S(=O)(=O)Nc2ccc(OC(F)(F)F)cc2)CC1C (stereo unspecified)	–	27.3 µM [falling, partial curve, poor fit]
CCCCCOc1ccccc1CN1C(=O)C(=O)c2cc(C)ccc21	24.3 µM [falling, partial curve]	24.3 µM [falling, partial curve]
CCOc1ccccc1C(=O)Nc1c(C(=O)Nc2ccc(F)cc2)oc2ccccc12	6.85 µM [falling, partial curve]	4.32 µM [falling, partial curve]
CCOc1ccccc1NC(=O)c1c(NCc2ccc(C)o2)sc2c1CCCCC2	21.7 µM [falling, partial curve, poor fit]	21.7 µM [falling, partial curve]
Cc1c(C(=O)OC2CCCCC2)[nH]c2c1C(=O)CC(c1ccccc1)C2 (stereo unspecified)	24.3 µM [falling, partial curve, poor fit]	24.3 µM [falling, partial curve, poor fit]
CCc1ccc(-n2c(SCc3cccc(F)c3)nc3[nH]ncc3c2=O)cc1	38.5 µM [falling, partial curve, poor fit]	43.2 µM [falling, single point]
O=S(=O)(NCC(c1ccco1)S(=O)(=O)c1cccs1)c1ccc(Cl)cc1 (stereo unspecified)	9.68 µM [falling, full curve]	5.44 µM [falling, full curve]
O=C(CCS(=O)(=O)c1nc(-c2ccc3c(c2)OCO3)cc(C(F)(F)F)n1)Nc1ccc(F)c(Cl)c1	17.2 µM [falling, partial curve]	21.7 µM [falling, partial curve]
CCc1ccc(C2CC(=O)c3c([nH]c(C(=O)OCc4ccc(C)cc4)c3C)C2)cc1 (stereo unspecified)	15.3 µM [falling, partial curve, poor fit]	15.3 µM [falling, partial curve]
CCOc1ccc(NC(=O)Cn2c(=O)n(Cc3ccc4c(c3)OCO4)c(=O)c3ccc(C(=O)NC4CCCCC4)cc32)cc1	9.68 µM [falling, full curve]	15.3 µM [falling, partial curve]
CCc1ccc2ncc(C(=O)c3ccc(C)c(C)c3)c(N3CCC(C(N)=O)CC3)c2c1	24.3 µM [falling, partial curve, poor fit]	19.3 µM [falling, partial curve]
Cc1cccc(CCNc2ncnc3onc(-c4ccc(Cl)cc4)c23)c1	27.3 µM [falling, single point]	43.2 µM [falling, single point]
CCC(C)NC(=O)CSc1c2c(nc3cc(Cl)ccc13)CCCC2 (stereo unspecified)	13.7 µM [falling, partial curve]	21.7 µM [falling, partial curve, poor fit]
CCOC(=O)N1CCN(Cc2nc3cc(NC(=O)c4ccc([N+](=O)[O-])cc4)ccc3n2C(C)C)CC1	27.3 µM [falling, single point]	6.11 µM [falling, partial curve, poor fit]
Cc1cccc(Nc2nc3c(S(=O)(=O)c4ccc(Br)cc4)nnn3c3ccsc23)c1C	9.68 µM [falling, full curve]	13.7 µM [falling, single point]
CCOC(=O)c1c(C)[nH]c(CCC(=O)NCCCN2CCN(c3cccc(Cl)c3)CC2)c1C	27.3 µM [falling, partial curve]	34.3 µM [falling, partial curve]
CC(=O)c1c(C)oc2ccc(N(C(=O)Oc3ccccc3)S(=O)(=O)c3ccc(C(C)(C)C)cc3)cc12	9.68 µM [falling, full curve, poor fit]	9.68 µM [falling, full curve, poor fit]
O=C(Nc1ccc(Cl)cc1)c1cnn2c1NC(c1ccccc1)=CC2c1ccccc1 (stereo unspecified)	38.5 µM [falling, single point]	48.5 µM [falling, single point]
